The source gives many values for each of these; only a part stands here.
Assay: Tissue distribution by quantitative whole-body autoradiography (QWBA)
Assay type: in vivo, male Sprague Dawley and Long-Evans rats
Settings: LE rat, 2 mg/kg IV
Method: The study utilized 4 groups of male SD rats (albino), and 3 groups of male LE rats (pigmented); a total of 39 rats. All animals were obtained from Hilltop Lab Animals, Inc. (Scottdale, Pa.). […] Rats in Group 5 were administered a single 2-h IV infusion of [^14C]brincidofovir at a target dose of 2 mg/kg. […] Three dosing formulations (one for high dose IV, one for low dose IV, and one for PO dose) were prepared at QPS on the day of dosing. The IV formulation for Groups 1, 2, 3, and 4 contained a vehicle of 10 mM sodium phosphate buffer in 5% dextrose solution at pH 8.0(±0.1).
Each animal, at their respective termination time points, was euthanized for QWBA analysis immediately after blood collection. One rat per time point per Group was euthanized as listed below.
The blood samples were maintained on wet ice (approximately 4° C.) and then centrifuged to obtain plasma within 1 h of the blood collection time. Centrifuge settings were recorded in the study notebook. Duplicate aliquots of plasma (0.050 mL) were analyzed for radioactivity using direct counting by LSC, and residual plasma was stored at approximately −70° C. and was saved for possible future analysis under a separate study protocol. Residual red blood cells were discarded as radioactive waste.
The pinna, distal limbs, hair, and tail were removed from each frozen carcass and each frozen carcass was embedded in an aqueous suspension of approximately 2% (w/v) carboxymethylcellulose and frozen into a block. The blocks were stored at approximately −20° C. prior to sectioning. Each blocked carcass was mounted on the object stage of a cryomicrotome (Leica CM3600 Cryomacrocut, Nussloch, Germany and Vibratome 9800, St. Louis, Mo.) maintained at approximately −20° C. and internal standards (3), which were plasma fortified with [^14C]-glucose at one concentration (approximately 0.05 μCi/mL), were placed into the frozen blocks, prior to sectioning, and were used for section thickness quality control. A number of whole-body sections (approximately 40 μm thick) were taken in the sagittal plane at various levels of interest using a whole-body cryomicrotome set at −20° C. Sagittal sections (20-50 μm thick) of frozen carcasses were exposed to phosphor imaging plates. Regions of images in tissues were converted to concentrations using standards. All of the major tissues, organs, and biological fluids were represented.
Tissue concentration data was determined for the following tissues and/or contents: adipose (brown and white), adrenal gland, bile (in duct), blood (cardiac), bone, bone marrow, brain (cerebrum, cerebellum, medulla), cecum (and contents), large intestine (and contents), epididymis, esophagus, eye (uvea and lens), Harderian gland, heart, kidney (cortex and medulla), liver, lung, lymph node, pancreas, pituitary gland, prostate gland, salivary gland, seminal vesicles, skeletal muscle, skin (pigmented and non-pigmented), small intestine (and contents), stomach (gastric mucosa and contents), spleen, spinal cord, testis, thymus, thyroid, and urinary bladder (and contents).
The imaging plate and sections were placed in light-tight exposure cassettes, in a copper-lined lead safe, for a 4-day exposure at room temperature. […] Quantification was performed by image densitometry using MCD image analysis software (v. 7.0, Interfocus Imaging Ltd) and a standard curve constructed from the integrated response [i.e., Molecular Dynamics Counts per square millimeter (MDC/mm^2)] and the nominal concentrations of the ^14C-calibration standards. The concentrations of radioactivity were expressed as the μg equivalents of [^14C]brincidofovir per gram sample (μg equiv/g). A lower limit of quantification (LLOQ) was applied to the data (See section 6.7.4).
Tissue concentrations that fell below the LLOQ were identified as being below the quantification limit (BQL). Tissue areas that were not visualized on autoradiographic images were identified as no sample (NS) and reported as BQL.

For CCCCCCCCCCCCCCCCOCCCOP(=O)(O)CO[C@H](CO)Cn1ccc(N)nc1=O [[^14C] brincidofovir], the Concentration of radioactivity (Adipose (brown), 2 h) was 0.356 μg equiv/g tissue, the Concentration of radioactivity (Adipose (brown), 8 h) was 0.099 μg equiv/g tissue and the Concentration of radioactivity (Adipose (brown), 24 h) was 0.050 μg equiv/g tissue. The Concentration of radioactivity (Adipose (brown), 72 h) was 0.039 μg equiv/g tissue, the Concentration of radioactivity (Adipose (white), 2 h) was 0.120 μg equiv/g tissue and the Concentration of radioactivity (Adipose (white), 8 h) was 0.015 μg equiv/g tissue. It also gave a Concentration of radioactivity (Adipose (white), 24 h) of 0.033 μg equiv/g tissue, a Concentration of radioactivity (Adipose (white), 72 h) of 0.005 μg equiv/g tissue and a Concentration of radioactivity (Adrenal Gland, 2 h) of 0.685 μg equiv/g tissue. It also gave a Concentration of radioactivity (Adrenal Gland, 8 h) of 0.440 μg equiv/g tissue, a Concentration of radioactivity (Adrenal Gland, 24 h) of 0.245 μg equiv/g tissue and a Concentration of radioactivity (Adrenal Gland, 72 h) of 0.167 μg equiv/g tissue. For the same molecule, the Concentration of radioactivity (Bile (in duct), 2 h) was 32.663 μg equiv/g tissue, the Concentration of radioactivity (Bile (in duct), 8 h) was 3.781 μg equiv/g tissue and the Concentration of radioactivity (Bile (in duct), 24 h) was 0.097 μg equiv/g tissue. The Concentration of radioactivity (Bile (in duct), 72 h) was 0.069 μg equiv/g tissue, the Concentration of radioactivity (Blood (cardiac), 2 h) was 0.771 μg equiv/g tissue and the Concentration of radioactivity (Blood (cardiac), 8 h) was 0.178 μg equiv/g tissue. It also gave a Concentration of radioactivity (Blood (cardiac), 24 h) of 0.041 μg equiv/g tissue, a Concentration of radioactivity (Blood (cardiac), 72 h) of 0.010 μg equiv/g tissue and a Concentration of radioactivity (Bone Marrow, 2 h) of 0.596 μg equiv/g tissue. It also gave a Concentration of radioactivity (Bone Marrow, 8 h) of 0.225 μg equiv/g tissue, a Concentration of radioactivity (Bone Marrow, 24 h) of 0.163 μg equiv/g tissue and a Concentration of radioactivity (Bone Marrow, 72 h) of 0.074 μg equiv/g tissue. The Concentration of radioactivity (Bone, 2 h) was 0.022 μg equiv/g tissue, the Concentration of radioactivity (Bone, 8 h) was 0.017 μg equiv/g tissue and the Concentration of radioactivity (Bone, 24 h) was 0.019 μg equiv/g tissue. The Concentration of radioactivity (Bone, 72 h) was 0.010 μg equiv/g tissue, the Concentration of radioactivity (Brain (cerebellum), 2 h) was 0.172 μg equiv/g tissue and the Concentration of radioactivity (Brain (cerebellum), 8 h) was 0.036 μg equiv/g tissue. It also gave a Concentration of radioactivity (Brain (cerebellum), 24 h) of 0.020 μg equiv/g tissue, a Concentration of radioactivity (Brain (cerebellum), 72 h) of 0.012 μg equiv/g tissue and a Concentration of radioactivity (Brain (cerebrum), 2 h) of 0.150 μg equiv/g tissue. It also gave a Concentration of radioactivity (Brain (cerebrum), 8 h) of 0.030 μg equiv/g tissue, a Concentration of radioactivity (Brain (cerebrum), 24 h) of 0.016 μg equiv/g tissue and a Concentration of radioactivity (Brain (cerebrum), 72 h) of 0.006 μg equiv/g tissue. It also gave a Concentration of radioactivity (Brain (medulla), 2 h) of 0.101 μg equiv/g tissue, a Concentration of radioactivity (Brain (medulla), 8 h) of 0.027 μg equiv/g tissue and a Concentration of radioactivity (Brain (medulla), 24 h) of 0.019 μg equiv/g tissue. The Concentration of radioactivity (Brain (medulla), 72 h) was 0.006 μg equiv/g tissue, the Concentration of radioactivity (Cecum (contents), 2 h) was 0.051 μg equiv/g tissue and the Concentration of radioactivity (Cecum (contents), 8 h) was 30.663 μg equiv/g tissue. For the same molecule, the Concentration of radioactivity (Cecum (contents), 24 h) was 3.948 μg equiv/g tissue, the Concentration of radioactivity (Cecum (contents), 72 h) was 0.191 μg equiv/g tissue and the Concentration of radioactivity (Cecum, 2 h) was 0.507 μg equiv/g tissue. The Concentration of radioactivity (Cecum, 8 h) was 0.696 μg equiv/g tissue, the Concentration of radioactivity (Cecum, 24 h) was 0.145 μg equiv/g tissue and the Concentration of radioactivity (Cecum, 72 h) was 0.090 μg equiv/g tissue. The Concentration of radioactivity (Epididymis, 2 h) was 0.328 μg equiv/g tissue, the Concentration of radioactivity (Epididymis, 8 h) was 0.088 μg equiv/g tissue and the Concentration of radioactivity (Epididymis, 24 h) was 0.089 μg equiv/g tissue. It also gave a Concentration of radioactivity (Epididymis, 72 h) of 0.037 μg equiv/g tissue, a Concentration of radioactivity (Esophagus, 2 h) of 0.425 μg equiv/g tissue and a Concentration of radioactivity (Esophagus, 8 h) of 0.346 μg equiv/g tissue. The Concentration of radioactivity (Esophagus, 24 h) was 0.134 μg equiv/g tissue, the Concentration of radioactivity (Esophagus, 72 h) was 0.036 μg equiv/g tissue and the Concentration of radioactivity (Eye (lens), 2 h) was “BQL (BQL = Value is below the LLOQ)”. For the same molecule, the Concentration of radioactivity (Eye (lens), 8 h) was “BQL (BQL = Value is below the LLOQ)”, the Concentration of radioactivity (Eye (lens), 24 h) was “BQL (BQL = Value is below the LLOQ)” and the Concentration of radioactivity (Eye (lens), 72 h) was “BQL (BQL = Value is below the LLOQ)”. The Concentration of radioactivity (Eye (uveal tract), 2 h) was 0.352 μg equiv/g tissue, the Concentration of radioactivity (Eye (uveal tract), 8 h) was 0.144 μg equiv/g tissue and the Concentration of radioactivity (Eye (uveal tract), 24 h) was 0.092 μg equiv/g tissue. For the same molecule, the Concentration of radioactivity (Eye (uveal tract), 72 h) was 0.061 μg equiv/g tissue, the Concentration of radioactivity (Harderian Gland, 2 h) was 0.300 μg equiv/g tissue and the Concentration of radioactivity (Harderian Gland, 8 h) was 0.162 μg equiv/g tissue. It also gave a Concentration of radioactivity (Harderian Gland, 24 h) of 0.116 μg equiv/g tissue, a Concentration of radioactivity (Harderian Gland, 72 h) of 0.100 μg equiv/g tissue and a Concentration of radioactivity (Heart, 2 h) of 0.373 μg equiv/g tissue. The Concentration of radioactivity (Heart, 8 h) was 0.109 μg equiv/g tissue, the Concentration of radioactivity (Heart, 24 h) was 0.040 μg equiv/g tissue and the Concentration of radioactivity (Heart, 72 h) was 0.025 μg equiv/g tissue. It also gave a Concentration of radioactivity (Kidney Cortex, 2 h) of 11.047 μg equiv/g tissue, a Concentration of radioactivity (Kidney Cortex, 8 h) of 8.188 μg equiv/g tissue and a Concentration of radioactivity (Kidney Cortex, 24 h) of 3.570 μg equiv/g tissue. For the same molecule, the Concentration of radioactivity (Kidney Cortex, 72 h) was 0.772 μg equiv/g tissue, the Concentration of radioactivity (Kidney Medulla, 2 h) was 3.359 μg equiv/g tissue and the Concentration of radioactivity (Kidney Medulla, 8 h) was 1.362 μg equiv/g tissue. It also gave a Concentration of radioactivity (Kidney Medulla, 24 h) of 0.854 μg equiv/g tissue, a Concentration of radioactivity (Kidney Medulla, 72 h) of 0.257 μg equiv/g tissue and a Concentration of radioactivity (Large Intestine (contents), 2 h) of 0.059 μg equiv/g tissue. It also gave a Concentration of radioactivity (Large Intestine (contents), 8 h) of 48.477 μg equiv/g tissue, a Concentration of radioactivity (Large Intestine (contents), 24 h) of 4.244 μg equiv/g tissue and a Concentration of radioactivity (Large Intestine (contents), 72 h) of 0.335 μg equiv/g tissue. The Concentration of radioactivity (Large Intestine, 2 h) was 0.545 μg equiv/g tissue, the Concentration of radioactivity (Large Intestine, 8 h) was 1.028 μg equiv/g tissue and the Concentration of radioactivity (Large Intestine, 24 h) was 0.504 μg equiv/g tissue. The Concentration of radioactivity (Large Intestine, 72 h) was 0.128 μg equiv/g tissue, the Concentration of radioactivity (Liver, 2 h) was 34.158 μg equiv/g tissue and the Concentration of radioactivity (Liver, 8 h) was 10.631 μg equiv/g tissue.

From patent US20170368082A1, “FORMULATIONS OF BRINCIDOFOVIR” (priority 2016, published 2017)
